# The list shows a part of the results.
# Assays:
# Experiment in all cases: glycan array binding signal (z-score within array); higher = stronger binding
# Settings in all cases: glycan notation: IUPAC condensed, linker removed
# GalNAc(b1-4)GlcNAc = molecular target: GalNAc(b1-4)GlcNAc
# Procedure, shortened: (§1)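 Columns mapping to the same glycan were averaged after glycan names were converted to IUPAC-condensed notation. The data come from 3228 arrays in the Consortium for Functional Glycomics database, limited to those with an available protein sequence. Binding is reported as a within-array Z-score averaged across arrays of one protein sequence and across linkers.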
# [1] = molecular target: GalNAc(b1-4)GlcNAc(b1-2)Man
# Procedure, shortened: as §1
# [2] = molecular target: GalNAc(b1-4)GlcNAc(b1-2)Man(a1-3)[GalNAc(b1-4)GlcNAc(b1-2)Man(a1-6)]Man(b1-4)GlcNAc(b1-4)GlcNAc
# Procedure, shortened: as §1
# [3] = molecular target: GalNAc(b1-4)GlcNAc(b1-3)GalNAc(b1-4)GlcNAc
# Procedure, shortened: as §1
# GalNAc(b1-4)GlcNAc6S = molecular target: GalNAc(b1-4)GlcNAc6S
# Procedure, shortened: as §1
# GalNAc(b1-6)GalNAc = molecular target: GalNAc(b1-6)GalNAc
# Procedure, shortened: as §1
# GalNAc3S(b1-4)GlcNAc = molecular target: GalNAc3S(b1-4)GlcNAc
# Procedure, shortened: as §1
# GalNAc3S(b1-4)GlcNAc3S = molecular target: GalNAc3S(b1-4)GlcNAc3S
# Procedure, shortened: as §1
# [4] = molecular target: GalNAc3S(b1-4)[Fuc(a1-3)]GlcNAc
# Procedure, shortened: as §1
# GalNAc4S6S(b1-4)GlcNAc = molecular target: GalNAc4S6S(b1-4)GlcNAc
# Procedure, shortened: as §1
# GalNAc6S(b1-4)GlcNAc = molecular target: GalNAc6S(b1-4)GlcNAc
# Procedure, shortened: as §1
# Glc(a1-4)Glc = molecular target: Glc(a1-4)Glc
# Procedure, shortened: as §1
# [5] = molecular target: Glc(a1-4)Glc(a1-4)Glc(a1-4)Glc
# Procedure, shortened: as §1
# Glc(a1-6)Glc(a1-6)Glc = molecular target: Glc(a1-6)Glc(a1-6)Glc
# Procedure, shortened: as §1
# [6] = molecular target: Glc(a1-6)Glc(a1-6)Glc(a1-6)Glc
# Procedure, shortened: as §1
# Glc(b1-4)Glc = molecular target: Glc(b1-4)Glc
# Procedure, shortened: as §1
# Glc(b1-6)Glc = molecular target: Glc(b1-6)Glc
# Procedure, shortened: as §1
# GlcA(b1-3)Gal = molecular target: GlcA(b1-3)Gal
# Procedure, shortened: as §1
# GlcA(b1-3)GlcNAc = molecular target: GlcA(b1-3)GlcNAc
# Procedure, shortened: as §1
# GlcA(b1-6)Gal = molecular target: GlcA(b1-6)Gal
# Procedure, shortened: as §1
# [7] = molecular target: GlcA3S(b1-3)Gal(b1-4)GlcNAc(b1-2)Man
# Procedure, shortened: as §1
# [8] = molecular target: GlcA3S(b1-3)Gal(b1-4)GlcNAc(b1-3)Gal(b1-4)Glc
# Procedure, shortened: as §1
# [9] = molecular target: GlcNAc(a1-3)Gal(b1-4)GlcNAc
# Procedure, shortened: as §1
# [10] = molecular target: GlcNAc(a1-4)Gal(b1-3)GlcNAc
# Procedure, shortened: as §1
# [11] = molecular target: GlcNAc(a1-4)Gal(b1-4)GalNAc
# Procedure, shortened: as §1
# [12] = molecular target: GlcNAc(a1-4)Gal(b1-4)GlcNAc
# Procedure, shortened: as §1
# [13] = molecular target: GlcNAc(a1-4)Gal(b1-4)GlcNAc(b1-3)Gal(b1-4)Glc
# Procedure, shortened: as §1
# [14] = molecular target: GlcNAc(a1-4)Gal(b1-4)GlcNAc(b1-3)Gal(b1-4)GlcNAc
# Procedure, shortened: as §1
# [15] = molecular target: GlcNAc(a1-4)Gal(b1-4)GlcNAc(b1-3)Gal(b1-4)GlcNAc(b1-3)Gal(b1-4)GlcNAc
# Procedure, shortened: as §1
# [16] = molecular target: GlcNAc(a1-4)Gal(b1-4)GlcNAc(b1-3)Gal(b1-4)[Fuc(a1-3)]GlcNAc(b1-3)Gal(b1-4)[Fuc(a1-3)]GlcNAc
# Procedure, shortened: as §1
# [17] = molecular target: GlcNAc(a1-6)Gal(b1-4)GlcNAc
# Procedure, shortened: as §1
# [18] = molecular target: GlcNAc(b1-2)Gal(b1-3)GalNAc
# Procedure, shortened: as §1
# [19] = molecular target: GlcNAc(b1-2)Man(a1-3)[GlcNAc(b1-2)Man(a1-6)]Man(b1-4)GlcNAc(b1-4)GlcNAc
# Procedure, shortened: as §1
# [20] = molecular target: GlcNAc(b1-2)Man(a1-3)[GlcNAc(b1-2)Man(a1-6)]Man(b1-4)GlcNAc(b1-4)[Fuc(a1-6)]GlcNAc
# Procedure, shortened: as §1
# [21] = molecular target: GlcNAc(b1-2)Man(a1-3)[GlcNAc(b1-4)][GlcNAc(b1-2)Man(a1-6)]Man(b1-4)GlcNAc(b1-4)GlcNAc
# Procedure, shortened: as §1
# [22] = molecular target: GlcNAc(b1-2)Man(a1-3)[GlcNAc(b1-4)][GlcNAc(b1-2)Man(a1-6)]Man(b1-4)GlcNAc(b1-4)[Fuc(a1-6)]GlcNAc
# Procedure, shortened: as §1
# [23] = molecular target: GlcNAc(b1-2)[GlcNAc(b1-4)]Man(a1-3)[GlcNAc(b1-2)Man(a1-6)]Man(b1-4)GlcNAc(b1-4)GlcNAc
# Procedure, shortened: as §1
# [24] = molecular target: GlcNAc(b1-2)[GlcNAc(b1-4)]Man(a1-3)[GlcNAc(b1-4)][GlcNAc(b1-2)Man(a1-6)]Man(b1-4)GlcNAc(b1-4)GlcNAc
# Procedure, shortened: as §1
# [25] = molecular target: GlcNAc(b1-2)[GlcNAc(b1-4)]Man(a1-3)[GlcNAc(b1-4)][GlcNAc(b1-2)[GlcNAc(b1-6)]Man(a1-6)]Man(b1-4)GlcNAc(b1-4)GlcNAc
# Procedure, shortened: as §1
# [26] = molecular target: GlcNAc(b1-2)[GlcNAc(b1-4)]Man(a1-3)[GlcNAc(b1-4)][GlcNAc(b1-2)[GlcNAc(b1-6)]Man(a1-6)]Man(b1-4)GlcNAc(b1-4)[Fuc(a1-6)]GlcNAc
# Procedure, shortened: as §1
# [27] = molecular target: GlcNAc(b1-2)[GlcNAc(b1-6)]Man(a1-6)[GlcNAc(b1-2)Man(a1-3)]Man(b1-4)GlcNAc(b1-4)GlcNAc
# Procedure, shortened: as §1
# [28] = molecular target: GlcNAc(b1-2)[GlcNAc(b1-6)]Man(a1-6)[GlcNAc(b1-2)Man(a1-3)]Man(b1-4)GlcNAc(b1-4)[Fuc(a1-6)]GlcNAc
# Procedure, shortened: as §1
# [29] = molecular target: GlcNAc(b1-2)[GlcNAc(b1-6)]Man(a1-6)[GlcNAc(b1-4)][GlcNAc(b1-2)Man(a1-3)]Man(b1-4)GlcNAc(b1-4)GlcNAc
# Procedure, shortened: as §1
# GlcNAc(b1-3)Fuc = molecular target: GlcNAc(b1-3)Fuc
# Procedure, shortened: as §1
# GlcNAc(b1-3)Gal = molecular target: GlcNAc(b1-3)Gal
# Procedure, shortened: as §1
binder,measurement,setting,value
"EPL1 (Trichoderma atroviride), A0PCX2 (protein) MQLSNLFKLALFTAAVSADTVSYDTGYDDASRSLTVVSCSDGTNGLITRYHWQTQGQIPRFPYIGGAQAVAGWNSPNCGTCWKLTYSGKTIYVLAIDHTAAGFNIGLDAMNALTNGNAVALGRVSATASQVAVSNCGL",glycan array binding signal (z-score),GalNAc(b1-4)GlcNAc,1.34
same,glycan array binding signal (z-score),[1],-0.174
same,glycan array binding signal (z-score),[2],0.03
same,glycan array binding signal (z-score),[3],0.338
same,glycan array binding signal (z-score),GalNAc(b1-4)GlcNAc6S,0.068
same,glycan array binding signal (z-score),GalNAc(b1-6)GalNAc,0.548
same,glycan array binding signal (z-score),GalNAc3S(b1-4)GlcNAc,-0.137
same,glycan array binding signal (z-score),GalNAc3S(b1-4)GlcNAc3S,-0.208
same,glycan array binding signal (z-score),[4],0.031
same,glycan array binding signal (z-score),GalNAc4S6S(b1-4)GlcNAc,-0.308
same,glycan array binding signal (z-score),GalNAc6S(b1-4)GlcNAc,-0.326
same,glycan array binding signal (z-score),Glc(a1-4)Glc,-0.003
same,glycan array binding signal (z-score),[5],-0.16
same,glycan array binding signal (z-score),Glc(a1-6)Glc(a1-6)Glc,-0.009
same,glycan array binding signal (z-score),[6],-0.044
same,glycan array binding signal (z-score),Glc(b1-4)Glc,-0.446
same,glycan array binding signal (z-score),Glc(b1-6)Glc,-0.664
same,glycan array binding signal (z-score),GlcA(b1-3)Gal,-0.134
same,glycan array binding signal (z-score),GlcA(b1-3)GlcNAc,-0.274
same,glycan array binding signal (z-score),GlcA(b1-6)Gal,-0.096
same,glycan array binding signal (z-score),[7],-0.347
same,glycan array binding signal (z-score),[8],0.009
same,glycan array binding signal (z-score),[9],-0.04
same,glycan array binding signal (z-score),[10],0.056
same,glycan array binding signal (z-score),[11],-0.278
same,glycan array binding signal (z-score),[12],-0.561
same,glycan array binding signal (z-score),[13],-0.128
same,glycan array binding signal (z-score),[14],-0.045
same,glycan array binding signal (z-score),[15],-0.215
same,glycan array binding signal (z-score),[16],0.229
same,glycan array binding signal (z-score),[17],-0.234
same,glycan array binding signal (z-score),[18],-0.386
same,glycan array binding signal (z-score),[19],-0.302
same,glycan array binding signal (z-score),[20],-0.216
same,glycan array binding signal (z-score),[21],-0.252
same,glycan array binding signal (z-score),[22],-0.381
same,glycan array binding signal (z-score),[23],-0.238
same,glycan array binding signal (z-score),[24],-0.032
same,glycan array binding signal (z-score),[25],-0.205
same,glycan array binding signal (z-score),[26],-0.001
same,glycan array binding signal (z-score),[27],0.123
same,glycan array binding signal (z-score),[28],-0.285
same,glycan array binding signal (z-score),[29],-0.514
same,glycan array binding signal (z-score),GlcNAc(b1-3)Fuc,-0.298
same,glycan array binding signal (z-score),GlcNAc(b1-3)Gal,0.034

# From the supplement of paper PMC8728848
